This passage reports binding signal (log fluorescence intensity) results from paper PMC6602471.

Some of the results follow. At the low end of the ranking the order means little.

This test has as its target T1, ELK1 (UniProt P19419).
T1 sequence: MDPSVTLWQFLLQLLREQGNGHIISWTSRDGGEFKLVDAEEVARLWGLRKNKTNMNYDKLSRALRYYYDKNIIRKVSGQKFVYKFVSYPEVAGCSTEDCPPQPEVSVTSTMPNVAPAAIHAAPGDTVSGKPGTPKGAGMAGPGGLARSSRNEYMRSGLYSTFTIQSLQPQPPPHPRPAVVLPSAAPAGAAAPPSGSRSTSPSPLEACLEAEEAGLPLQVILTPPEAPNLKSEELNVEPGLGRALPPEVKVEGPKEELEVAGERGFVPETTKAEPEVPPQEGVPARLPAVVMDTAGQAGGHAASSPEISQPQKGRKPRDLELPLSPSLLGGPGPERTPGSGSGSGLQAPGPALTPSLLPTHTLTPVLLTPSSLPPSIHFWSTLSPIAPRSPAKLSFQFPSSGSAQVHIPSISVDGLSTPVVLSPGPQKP
Briefly: custom PBM. Particulars: custom protein-binding microarray; buffer, salt, pH and temperature not stated; high values mean tight binding; double strand, one strand shown.
On to “CAGCATAGGACTTCTTCCCTGAAGCAATTGACAACCGTCTTGATTCGCTTGACGCTGCTG”, for which the binding signal (log fluorescence intensity) turned out to be 8.63. With “TACTGACTTATATATGCAAATGCACATGAATAGACCGTCTTGATTCGCTTGACGCTGCTG” the figure was 8.9; with “CACAATTTTTACATTAATGTAGCACGCGTAACTCCTGTCTTGATTCGCTTGACGCTGCTG”, 8.97. Take “CTGGGACTTGACCCAACTCTGCCACGTCGGTCGTTTGTCTTGATTCGCTTGACGCTGCTG”: the binding signal (log fluorescence intensity) was 8.88. With “GATTAATTTCTGCCCTTATTCGCACGCGCCATAACAGTCTTGATTCGCTTGACGCTGCTG” the figure was 8.96; with “GTGGATAGGATCCCATCCAACACACGTGTTAAAATGGTCTTGATTCGCTTGACGCTGCTG”, 8.92; with “CTCAATTTTTACAGTAATGTAGCACGCGTAACTCCTGTCTTGATTCGCTTGACGCTGCTG”, 8.95. In the case of “TGTCGGGTAAGGGAATGTAGATCACGTGTATGAAAAGTCTTGATTCGCTTGACGCTGCTG”, the binding signal (log fluorescence intensity) was determined as 8.77.

Regarding “TCCGGCTACCAGCTCCACCCACTTCAGGCCCTGTAGGTCTTGATTCGCTTGACGCTGCTG”, the binding signal (log fluorescence intensity) was 8.85. With “GATTAATTTCTGCCCTTATGCGCACGTGCCATAACAGTCTTGATTCGCTTGACGCTGCTG” the figure was 8.84; with “CTAGGACTTGACCCAACTCTGCCACGTGGGTCGTTTGTCTTGATTCGCTTGACGCTGCTG”, 8.87; with “GGAAAAAGGCCCAGGGTAACACCGGAAGTGAGCTTAGTCTTGATTCGCTTGACGCTGCTG”, 10.8.

Consider “CAGCATAGGACTTCTTCCCTGAAGCAATTGATAAACGTCTTGATTCGCTTGACGCTGCTG”, for which the binding signal (log fluorescence intensity) was 8.83. With “TAAAGGGAAGACGGTTGTGGTAGTTCCGGATATTAAGTCTTGATTCGCTTGACGCTGCTG” the figure was 11.2.

With “CTGGGACTTCACCCAACTCTGCCACGTGGGTCGTTTGTCTTGATTCGCTTGACGCTGCTG”, the binding signal (log fluorescence intensity) is 8.85. As for “TGTCGGGTAAGGGAATGTTGATCACGTGAATGAAAAGTCTTGATTCGCTTGACGCTGCTG”, the figure is 9; as for “CACAATTTTTACAGTAATGTAGCACGCGTAACTCATGTCTTGATTCGCTTGACGCTGCTG”, 8.92; as for “CACAATTTTTACAGTAATGTAGCACGCGTAACGCCTGTCTTGATTCGCTTGACGCTGCTG”, 8.92.

For the sequence “CGGAAGTGTCGTAAACGTCGGATATCCGGTACTTCTGTCTTGATTCGCTTGACGCTGCTG”, the binding signal (log fluorescence intensity) was found to be 12.3. Take “GGAAAAAGGCCCAGGGTAATACCGGAAGTGGGCTTAGTCTTGATTCGCTTGACGCTGCTG”: the binding signal (log fluorescence intensity) worked out at 10.9.

As to “CGGAAGTTTCGTAAACGTCGGATATCCGGTTCTTCTGTCTTGATTCGCTTGACGCTGCTG”, the binding signal (log fluorescence intensity) was 12.1. As for “TACTGACTTATACATGCGAATGCACATGAATAGACCGTCTTGATTCGCTTGACGCTGCTG”, the binding signal (log fluorescence intensity) amounted to 8.78. As for “GATTAATTTCTGCCCCTATTCGCACGTGCCATAACAGTCTTGATTCGCTTGACGCTGCTG”, the figure is 8.76. In the case of “CGGAAGTGTCGTAAACGTCGGATATCCTGTTCTTCTGTCTTGATTCGCTTGACGCTGCTG”, the binding signal (log fluorescence intensity) amounted to 10.4. With “CACAATTTTTACAGTAATGGAGCACGCGTAACTCCTGTCTTGATTCGCTTGACGCTGCTG” the figure was 8.81. “TGTCGGGCAAGGGAATGTAGATCACGTGAATGAAAAGTCTTGATTCGCTTGACGCTGCTG”: the binding signal (log fluorescence intensity) worked out at 9.09.

Turning to “GGAAAAATGCCCAGGGTAACACCGGAAGTGGGCTTAGTCTTGATTCGCTTGACGCTGCTG”, the binding signal (log fluorescence intensity) stood at 11.

Regarding “CGGAAGTGTCGTAAACGTCGGATATCCGGTTCGTCTGTCTTGATTCGCTTGACGCTGCTG”, the binding signal (log fluorescence intensity) came out at 12.4. With “CACAGTTTTTACAGTAATGTAGCACGCGTAACTCCTGTCTTGATTCGCTTGACGCTGCTG” the figure was 8.91; with “GCTGCTGCGGTGCATACCCCACCGAATGTGACCCCGGTCTTGATTCGCTTGACGCTGCTG”, 8.9. With “GGTTAATTTCTGCCCTTATTCGCACGTGCCATAACAGTCTTGATTCGCTTGACGCTGCTG”, the binding signal (log fluorescence intensity) came out at 8.97. As for “TACTGTCTTATATATGCGAATGCACATGAATAGACCGTCTTGATTCGCTTGACGCTGCTG”, the figure is 8.83; as for “GCTTAATTTCTGCCCTTATTCGCACGTGCCATAACAGTCTTGATTCGCTTGACGCTGCTG”, 9; as for “TCCGGCTACCAGCTCCACCCACCTCAGGCCTTGTAGGTCTTGATTCGCTTGACGCTGCTG”, 8.76. With “TAAAGGGAAGACGGTTGTGGTAGTTCCGGGTATCAAGTCTTGATTCGCTTGACGCTGCTG” the figure was 11.1; with “GCTGCTGCGGTGCATACCCCACCGGATGTGACCGCGGTCTTGATTCGCTTGACGCTGCTG”, 10.3. With “GATTAATTTCTGCCCTTATTCGCACGTGACATAACAGTCTTGATTCGCTTGACGCTGCTG” the figure was 8.89. On to “TCCGGCTACCAGCTCCACCCACTTCAGGCCTTGTAGGTCTTGATTCGCTTGACGCTGCTG”, for which the binding signal (log fluorescence intensity) came out at 8.96.

In the case of “GTGTATAGGGTCCCATCCAACACACGTGTTAAAATGGTCTTGATTCGCTTGACGCTGCTG”, the binding signal (log fluorescence intensity) stood at 8.77.

Turning to “TACTGACTTATATATGCGAATGCACATGATTAGACCGTCTTGATTCGCTTGACGCTGCTG”, the binding signal (log fluorescence intensity) was 9.
